In the experiment the target is huAb45. Briefly: BLI. Background: BLI is a label-free optical method that tracks binding on a fibre tip over time.

In publication PMC9249326 (2022) one finds Kd and koff data, which are given here for one molecule.

huAb45, sequence (P01138 122-241): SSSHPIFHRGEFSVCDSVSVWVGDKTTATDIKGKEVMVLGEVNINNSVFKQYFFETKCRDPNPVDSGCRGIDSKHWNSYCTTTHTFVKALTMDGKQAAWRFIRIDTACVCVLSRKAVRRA

B1: 6xHis-tagged human NGF (nerve growth factor) (ligand)
chain: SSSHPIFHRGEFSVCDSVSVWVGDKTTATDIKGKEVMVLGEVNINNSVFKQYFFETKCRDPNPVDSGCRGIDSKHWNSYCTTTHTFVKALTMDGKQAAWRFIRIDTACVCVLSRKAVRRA
The Kd is the equilibrium constant for the complex coming apart. Usually koff stands for the rate constant with which the complex falls apart. The low end stands for a long-lived complex, the high end for a short-lived complex. The molecule B1 showed a Kd of less than 1 pM and a koff of less than 1e-07 s⁻¹.
